According to PubChem BioAssay AID504832 (National Center for Advancing Translational Sciences (NCATS), 2011):
Out of some 310,000 compounds screened, about 18,000 (5.8%) were called active. This list was built around the results that the source calls inconclusive (neither active nor inactive); the mix of calls is not that of the screen. The call rests on the fitted dose curve; in most records, active means well fitted inhibition curve with a large enough effect; inconclusive means small, poorly fitted or top-dose-only effect, or another doubt; inactive means no such curve, though single readings can be large or run the other way. No potency is given beside an inconclusive call; the fits are too rough.

Assay: Primary qHTS for delayed death inhibitors of the malarial parasite plastid, 48 hour incubation
Settings: P. falciparum luciferase growth in erythrocytes; series mostly up to 28.7 µM
Method in brief: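 Firefly luciferase activity from engineered P. falciparum reports growth; inhibitors lower the luminescent signal. Cultures contained 2% hematocrit erythrocytes at 0.1% final parasitemia.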
Potency means the concentration at half of the fitted maximal effect; tags describe the fitted curve by direction and shape.

Structure (SMILES) | Potency
CN(C1=NC(=O)C(CC(=O)Nc2ccc(Br)cc2)S1)c1ccc(O)cc1 (stereo not given) | inactive
O=C1CS/C(=N/N=C\c2ccn[nH]2)N1 | inactive
COc1ccc(NC(=O)c2cccc(Cl)c2)c[n+]1[O-] | inactive
CCc1ccc(C2c3[nH]c4ccccc4c3CCN2C(=O)c2cc(C)nn2C)cc1 (stereo not given) | inconclusive [inhibitor, full curve]
Cc1c(-c2cccc(Cl)c2)nc2ccccc2c1C(=O)OCC(=O)Nc1ccc2c(c1)OCO2 | inconclusive [inhibitor, partial curve, poor fit]
CN(CC1CCCO1)S(=O)(=O)c1ccc(C(=O)Nc2ccc3c(c2)OCO3)cc1 (stereo not given) | inconclusive [inhibitor, partial curve, poor fit]
NC(=O)c1ccc(N2CCN(c3ccc(O)cc3)CC2)c([N+](=O)[O-])c1 | inconclusive [inhibitor, single point]
CCCCNS(=O)(=O)c1ccc(NC(=O)c2cccs2)cc1 | inconclusive [inhibitor, partial curve, poor fit]
Fc1cccc(-c2c(-c3ccccc3)ncc3cc(F)ccc23)c1 | inconclusive [inhibitor, single point]
O=S1(=O)c2cccc3cccc(c23)N1CCBr | inactive
CSc1ccc(CN(C)C(=O)CSCC(=O)Nc2cc(C)on2)cc1 | inconclusive [inhibitor, single point]
Cc1ccc(C(=O)OCCc2sc[n+](Cc3ccccc3)c2C)cc1 | active: 1.47 µM
C=C1C(n2cnc3c(=O)[nH]c(N)nc32)C[C@H](O)[C@H]1CO (stereo not given in full) | inconclusive [inhibitor, partial curve]
O=C(Nc1cccc([N+](=O)[O-])c1)c1ccccc1 | inactive
CCc1ccc(CN(C)C(=O)c2cc(S(=O)(=O)N3CCOCC3)ccc2N2CCCC2)cc1 | active: 11.7 µM
Cc1cc(Br)ccc1OCc1nc(-c2cccnc2)no1 | inconclusive [inhibitor, single point]
CCC(Sc1nc2ccsc2c(=O)n1Cc1ccc(C(=O)O)cc1)C(=O)Nc1ccc(C)c(Cl)c1 (stereo not given) | inconclusive [inhibitor, partial curve]
Cc1ccc(C2SCC(=O)N2c2ccccc2)cc1 (stereo not given) | inconclusive [inhibitor, single point]
[O-][n+]1onc2c1CCc1c-2nn(-c2ccccc2Cl)[n+]1[O-] | inconclusive [inhibitor, partial curve, poor fit]
CCOc1ccc2nc(NC(=O)C3CCN(c4cnccn4)CC3)sc2c1 | active: 9.28 µM
OC(CNC1CCCc2ccccc21)COc1ccc2ccccc2c1 (stereo not given) | inconclusive [inhibitor, single point]
S=C(N/N=C/c1ccc(Cl)c(Cl)c1)Nc1ccccc1Cl | inactive
COc1ccc(C(=O)N/N=C/c2sc3ccccc3c2O)cc1 | inconclusive [inhibitor, single point]
O=C(O)c1ccc(O)c(O)c1 | inconclusive [inhibitor, single point]

Structure (SMILES) | Potency
N#CCC(=O)Nc1nc(-c2ccc3c(c2)OCCO3)cs1 | inactive
COc1ccc(NS(=O)(=O)c2ccc(OC)c(N(C)S(=O)(=O)c3ccc(Cl)cc3)c2)cc1 | active: 11.7 µM
O=C(O)c1ccc2c(c1)C(=O)N(c1ccc(OCc3ccccc3)cc1)C2=O | inactive
Cc1cccc(/C=C(\c2nc3ccccc3[nH]2)S(=O)(=O)c2ccccc2)c1 | active: 3.7 µM
Cc1ccc2[nH]c3c(=S)nc[nH]c3c2c1 | inconclusive [inhibitor, single point]
CC(C)CCN(C(=O)CNC(=O)c1cccs1)C(C(=O)NC1CCCC1)c1ccncc1 (stereo not given) | inactive
CCOc1ccccc1NC(=S)N(CCC(C)C)C1CCN(C(C)=O)CC1 | inconclusive [inhibitor, single point]
CCOC(=O)Cn1c2c(c(-c3ccccc3OC)cc1=O)CCCC2 | inconclusive [inhibitor, single point]
O=[N+]([O-])c1cc(CN2CCCC2)c2cccnc2c1O | active: 9.28 µM
COc1ccccc1NC(=S)NC1CCCCCC1 | inactive
N#Cc1c(N)c(C#N)c(-c2ccc3c(c2)OCO3)c2c1CCCC2 | inconclusive [inhibitor, partial curve, poor fit]
COc1cc(/C=N/NC(=O)c2cc(C34CC5CC(CC(C5)C3)C4)[nH]n2)ccc1O | inconclusive [inhibitor, partial curve]
CCCNC(=O)C1CCN(S(=O)(=O)c2ccc(Br)cc2)CC1 | active: 4.65 µM
CCOC(=O)c1ccc(NC(=O)CSc2nnc(-c3cccs3)n2CC)cc1 | inconclusive [inhibitor, partial curve]
CCOc1ccc2[nH]c(=O)c(CN(Cc3ccco3)C(CC)c3nnnn3Cc3ccccc3)cc2c1 (stereo not given) | active: 5.86 µM
CCOc1ccccc1-n1cnc2cc(C(=O)NCc3ccco3)ccc21 | inconclusive [inhibitor, full curve, poor fit]
Cc1nc2ccccc2n1S(=O)(=O)c1cc(C(=O)O)ccc1Cl | inactive
COc1ccc(C(c2nnnn2C2CCCCC2)N2CCN(c3ccccc3F)CC2)cc1 (stereo not given) | inconclusive [inhibitor, partial curve, poor fit]
CC(C)(C)N1C(=O)[C@H]2[C@@H](c3ccc(Br)cc3)N3C(=O)N(c4cccc(F)c4)C(=O)[C@@]3(C)[C@H]2C1=O | inconclusive [inhibitor, single point]
COc1ccc(Cl)cc1N(CC(=O)N/N=C/c1ccc(OC(C)C)cc1)S(=O)(=O)c1ccc(C)c([N+](=O)[O-])c1 | inconclusive [inhibitor, partial curve, poor fit]
N#CCC(=O)Nc1ccc(C(=O)OCC(=O)Nc2ccccc2-c2ccccc2)cc1 | inconclusive [inhibitor, partial curve]
CCN(CC)S(=O)(=O)c1ccc(C)c(NC(=S)N2CCN(c3ccccn3)CC2)c1 | inconclusive [inhibitor, single point]
Cc1nc(NC(=O)CSc2nc3cccnc3n2Cc2ccccc2)sc1C | inconclusive [inhibitor, single point]
CCOC(=O)N1CCN(C(=O)c2cccn3c(=O)c4cc(Br)ccc4nc23)CC1 | inactive

Structure (SMILES) | Potency
CCOC(=O)C(Cc1ccc(N)cc1)N1C(=O)c2ccccc2C1=O (stereo not given) | inconclusive [inhibitor, single point]
Cc1cc(N/N=C/c2ccccc2)nc(NCc2ccccc2)n1 | active: 2.33 µM
CCOc1ccc(Cl)cc1C1=CC(=O)C[C@H](c2ccc(OC)cc2)C1 | inconclusive [inhibitor, partial curve, poor fit]
CCn1c(=O)n(CC)c2cc(N3CCCC3)c(NC(=O)c3ccccc3C)cc21 | inconclusive [inhibitor, partial curve, poor fit]
O=C1C(c2ccccc2)C(c2ccccc2)NC(c2ccccc2)C1c1ccccc1 (stereo not given) | active: 1.85 µM
O=C(Nc1ccccc1C(=O)O)c1cccc(NC(=O)c2ccc(Br)o2)c1 | inconclusive [inhibitor, single point]
C=CCNC(=O)CN1CCN(C(c2ccccc2)c2ccccc2)CC1 | inconclusive [inhibitor, partial curve]
Cc1ccc(-c2[nH]c3cc(C(=O)NCCCn4ccnc4)ccc3c(=O)c2O)cc1 | active: 13.1 µM
Cc1ccc(S(=O)(=O)N2CCC(=O)N(C(COCc3cccc(C)c3)C(C)C)CC2)cc1 (stereo not given) | active: 10.4 µM
CC(=O)N(CCc1ccccc1)Cc1cc2cc(C)ccc2[nH]c1=O | inactive
Cc1ccccc1-c1nn(-c2ccccc2)cc1C(=O)NCC(c1ccco1)N1CCCC1 (stereo not given) | inconclusive [inhibitor, single point]
CC1(C)SC2C(NC(=O)C(C(=O)O)c3ccccc3)C(=O)N2C1C(=O)O (stereo not given) | inactive
Cc1ccc2oc(=O)n(CC(=O)N3CCOCC3)c2c1 | inactive
COc1ccc(CCCc2nnc(SCC(=O)Nc3ncc(C)s3)o2)cc1 | inconclusive [inhibitor, single point]
COc1ccc(CCNC(=O)CSc2nc(C)nc3c2oc2ccccc23)cc1OC | inconclusive [inhibitor, full curve, poor fit]
CCCCc1ccc(NC(=O)CSc2nc(=O)n(CCN(CC)CC)c3c2CCCC3)cc1 | active: 11.7 µM
Cc1ccc2nc3c(cc2c1)c(NC(=O)c1ccco1)nn3CC(C)C | inconclusive [inhibitor, single point]
COc1ccc(N2CCN(Cc3nc4c(c(=O)[nH]c(=O)n4C)n3Cc3cccc(Cl)c3)CC2)cc1 | inconclusive [inhibitor, single point]
CCOC(=O)Cc1nc(-c2cccc(C(F)(F)F)c2)no1 | inconclusive [inhibitor, partial curve, poor fit]
COc1cccc(/C=C2\SC(=S)N(CCC(=O)NC3C=CS(=O)(=O)C3)C2=O)c1 (stereo not given) | inconclusive [inhibitor, full curve]
COc1ccc(NC(=O)CC2SC(=O)NC2=O)cc1 (stereo not given) | inactive
CCN(CC)CCCN(Cc1cc2cc3c(cc2[nH]c1=O)OCO3)C(=O)Nc1ccccc1OC | inconclusive [inhibitor, single point]
